Reference: PubChem BioAssay AID485294 (National Center for Advancing Translational Sciences (NCATS), 2010)
About 150 (0.041%) of roughly 370,000 compounds were called active. Inconclusive means that the source gave no clear call. Such entries were picked first, then a sample of the others. The call rests on the fitted dose curve; in most records, active means well fitted inhibition curve with a large enough effect; inconclusive means small, poorly fitted or top-dose-only effect; inactive means flat fitted curve, though single readings scatter. No potency is given beside an inconclusive call; the fits are too rough.

These compounds were tested against Beta-lactamase (Escherichia coli (strain K12)) (UniProt P00811) (assay: qHTS Inhibitors of AmpC Beta-Lactamase (assay with detergent)). Details: AmpC hydrolysis of nitrocefin, absorbance 480 nm, 0.01% Triton; activity change, negative = inhibition: at 114 µM (top of the series).
Procedure, shortened: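 20 mM phosphate pH 7.0 + 0.01% (detergent screen) or 0.0001% Triton X-100; 5.3 nM AmpC reagent; cpd preinc 15 min RT; nitrocefin (800 uM stock) to start; A480 q20 s × 4 min; Activity was normalised to no-enzyme and no-compound control wells.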
Further: nearly all actives have a fitted effect of over 25% in size.
Potency means the concentration at half of the fitted maximal effect; tags describe the fitted curve by direction and shape.
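Wherever activity change, negative = inhibition is given: 0% = no-compound wells and -100% = no-enzyme wells.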

Chain of UniProt P00811 (P00811 whole entry, looked up): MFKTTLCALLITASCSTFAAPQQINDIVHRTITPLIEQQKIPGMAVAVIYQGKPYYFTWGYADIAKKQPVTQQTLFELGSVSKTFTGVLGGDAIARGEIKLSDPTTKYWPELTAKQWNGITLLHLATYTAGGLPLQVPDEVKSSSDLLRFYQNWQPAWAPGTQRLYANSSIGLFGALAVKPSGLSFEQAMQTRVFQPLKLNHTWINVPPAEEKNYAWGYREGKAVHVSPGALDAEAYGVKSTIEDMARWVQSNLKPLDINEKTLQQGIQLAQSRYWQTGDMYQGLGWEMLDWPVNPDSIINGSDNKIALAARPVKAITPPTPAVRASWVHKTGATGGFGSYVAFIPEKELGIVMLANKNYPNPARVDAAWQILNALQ

SMILES | Potency | activity change, negative = inhibition
COc1cccc(-c2ccc(SCC(=O)N3CCOCC3)nn2)c1 | inconclusive [inhibitor, full curve, poor fit] | 
CN(C)CC/C=C1\c2cc(F)ccc2CSc2ccccc21 | inconclusive [inhibitor, full curve] | 
CS(=O)(=O)N(CC(=O)NCCSC1CCCCC1)c1ccc2c(c1)OCO2 | inconclusive [inhibitor, full curve, poor fit] | 
COc1ccccc1C(=O)OCC(=O)NC1CCCC1 |  | inactive: 3.07%
Cc1[nH]c2ccccc2c1/C=N/O | inconclusive [inhibitor, full curve, poor fit] | 
CCCNC(=O)CN1C(=O)CSc2ccc(S(=O)(=O)N3CCC(C)CC3)cc21 |  | inactive: -2.1%
N#Cc1ccc(CN2CCN(C(=O)CNC(=O)Cc3ccccc3)CC2)cc1 | inconclusive [inhibitor, partial curve] | 
Cc1ccc(Cn2cnc3nc4c(cc3c2=O)CC(C)CC4)cc1 (stereo not drawn) |  | inactive: -0.0694%
CCOCCCNC(=O)C(c1ccc(Cl)cc1)N1CCN(c2ccccc2)CC1 (stereo not drawn) | inconclusive [inhibitor, full curve, poor fit] | 
Cc1ccc(N=C2NC(=O)C(CO)(CO)S2)cc1 |  | inconclusive: -19.2% [inhibitor]
Cc1nnc(NC(=O)CN2CCN(Cc3c(Cl)cccc3Cl)CC2)s1 | inconclusive [inhibitor, full curve, poor fit] | 
CCOc1ccc(CNc2ncnc(N)n2)cc1 | inconclusive [inhibitor, partial curve, poor fit] | 
CCOC(=O)NN1C(=O)c2ccccc2NC1c1ccc(OC)cc1 (stereo not drawn) | inconclusive [inhibitor, partial curve] | 
COc1ccc(C(=O)NNC(=S)NC(=O)c2ccc(OC)cc2)cc1 |  | inactive: -12%
O=C(O)c1ccc(NC(=O)c2cc(S(=O)(=O)N3CCCCC3)c(Cl)cc2Cl)cc1 |  | inactive: 0.614%
O=[N+]([O-])c1ccccc1-c1cc(-c2ccccc2O)n[nH]1 | inconclusive [inhibitor, partial curve, poor fit] | 
CCN1C(=O)[C@H]2[C@@H](c3ccc(-c4ccc5c(c4)OCO5)c(OC)c3)N[C@@](CC(C)C)(C(=O)OC)[C@H]2C1=O |  | inactive: -13.7%
COc1cc(S(=O)(=O)N2CCCCCC2)c(OC)cc1Br | inconclusive [inhibitor, full curve, poor fit] | 
O=C(CCCn1c(=O)c2sccc2n(Cc2cc(=O)n3ccccc3n2)c1=O)NCc1ccco1 | inconclusive [inhibitor, full curve, poor fit] | 
COc1ccc(OCC(=O)N/N=C(\C)c2ccc(OC)cc2)cc1 |  | inactive: -13.9%
Cc1ccccc1NC(=O)/C=C/c1cccs1 | inconclusive [inhibitor, partial curve] | 
CC1=Nc2cccc([N+](=O)[O-])c2NC(=O)C1 | inconclusive [inhibitor, full curve] | 
Cc1ccc(SCCC(=O)N2CCC(C(N)=O)CC2)cc1 |  | inactive: -2.61%

SMILES | Potency | activity change, negative = inhibition
O=c1[nH]nc(Cc2ccc(Cl)cc2)c2ccccc12 | inconclusive [inhibitor, single point] | 
Cc1ccc(C(c2nnnn2C2CCCCC2)N2CCc3ccccc32)cc1 (stereo not drawn) | inconclusive [inhibitor, full curve, poor fit] | 
CCCCn1c(CN2CCOCC2)nc2c1c(=O)n(C)c(=O)n2C | inconclusive [inhibitor, full curve, poor fit] | 
CN(C)CCNC(=O)c1ccc(-c2nn(C)c(=O)c3ccccc23)cc1 | inconclusive [inhibitor, full curve, poor fit] | 
CN(C)S(=O)(=O)c1ccc(C(=O)NCC(C)(C)CN=C2NS(=O)(=O)c3ccccc32)cc1 | inconclusive [inhibitor, full curve, poor fit] | 
CC(C)OC(=O)C(C)Oc1ccc(C(=O)NCCc2ccccc2)cc1 (stereo not drawn) |  | inactive: 3.77%
O=C(Nc1nnc(-c2ccco2)s1)C1CCN(S(=O)(=O)c2ccc(Cl)cc2)CC1 |  | inactive: -13.4%
O=C(CCn1c(=S)[nH]c2cc3c(cc2c1=O)OCO3)NCc1ccccc1Cl |  | inactive: 0.475%
COC(=O)c1ccc(Oc2cc(C)nc(SC)n2)cc1 | inconclusive [inhibitor, full curve, poor fit] | 
CCCn1c(NC(=O)c2cccc(S(=O)(=O)N3CCCC3)c2)nc2ccccc21 | inconclusive [inhibitor, full curve] | 
O=C(Nc1ccc(CN2CCOCC2)cc1)c1cc(Br)ccc1Cl |  | inactive: -11.1%
Cc1ccc(N(C)S(=O)(=O)c2cccc(C(=O)Oc3ccc4c(C)cc(=O)oc4c3)c2)cc1 | inconclusive [inhibitor, full curve, poor fit] | 
COc1ccc(CCNc2c(N)n(Cc3ccccc3)c(=O)[nH]c2=O)cc1OC | inconclusive [inhibitor, partial curve, poor fit] | 
Cc1ccc(-n2ncc3c(NCc4ccccn4)ncnc32)c(C)c1 | inconclusive [inhibitor, full curve, poor fit] | 
O=C(Nc1ccc2c(c1)OCCO2)c1ccc(Br)cc1 | inconclusive [inhibitor, full curve, poor fit] | 
CSc1ccc(-c2nc3cccc(C)n3c2Nc2ccc(Cl)cc2)cc1 |  | inactive: 13.5%
COc1ccc(NC(=O)CSc2nc(O)cc(=O)n2C)cc1 | inconclusive [inhibitor, full curve] | 
COc1cccc(CN2CC(C(=O)N3CCN(C(C)C)CC3)CCC2=O)c1 (stereo not drawn) | inconclusive [inhibitor, partial curve, poor fit] | 
Cc1ccc(NC(=O)CCn2cnc3ccccc3c2=O)cc1 | inconclusive [inhibitor, single point] | 
Cc1ccc(C(=O)Oc2ccc(-c3nccc(-c4ccccn4)n3)cc2)cc1 |  | inactive: 1.68%
O=C(Nc1nccs1)c1ccc(Cl)cc1[N+](=O)[O-] | inconclusive [inhibitor, full curve, poor fit] | 
Cc1ccccc1N1C(=O)c2sc3nc4c(c(=O)n3c2C1=O)CCC4 | inconclusive [inhibitor, single point] | 
CCCN(CC(=O)Nc1ccccc1C)C(=O)c1ccc(C2SCCS2)cc1 | inconclusive [inhibitor, partial curve, poor fit] | 

SMILES | Potency | activity change, negative = inhibition
CC(C)Cn1c(N)c(C(=O)COC(=O)c2cc(C3CC3)nc3ccccc23)c(=O)n(C)c1=O | inconclusive [inhibitor, full curve, poor fit] | 
NC(=O)c1cc2ccccc2o/c1=N/NC(=O)c1cccs1 |  | inactive: 8.21%
CCOC(=O)c1c(NC(=O)c2cccnc2Cl)sc(C(=O)N(C)C)c1C | inconclusive [inhibitor, full curve] | 
CCOC(=O)NC(=O)/C(C#N)=N\Nc1ccc(Cl)cc1 | inconclusive [inhibitor, full curve, poor fit] | 
CCOC(=O)c1c(NC(C)=O)sc(/C(C)=N/Nc2ccc(C(=O)O)cc2)c1C |  | inactive: -6.14%
COCC(C)NC(=O)/C(=C/c1ccccc1)c1ccccc1 (stereo not drawn) | inconclusive [inhibitor, single point] | 
O=C1NC[C@H](CC2CCCCC2)N(CC2CCCCC2)C1=O | inconclusive [inhibitor, full curve] | 
COc1ccc([C@@H]2[C@@H]3C(=O)N(C(C)(C)C)C(=O)[C@@H]3[C@]3(C)C(=O)N(c4cccc(F)c4)C(=O)N23)cc1 | inconclusive [inhibitor, full curve] | 
COc1ccccc1NC(=O)Nc1nc(CC(=O)NCc2ccccn2)cs1 |  | inactive: -1.36%
CC(C)(C)c1nnc(NS(=O)(=O)c2ccc([N+](=O)[O-])cc2)s1 | inconclusive [inhibitor, full curve, poor fit] | 
COc1ccc(CCNC(=S)N2CCN(S(=O)(=O)c3cccc(F)c3)CC2)cc1 | inconclusive [inhibitor, full curve] | 
O=C(NCN1CCc2ccccc2C1)c1cnccn1 | inconclusive [inhibitor, full curve, poor fit] | 
CCOC(=O)NN1C(=O)c2ccccc2NC1c1ccc(OC)cc1OC (stereo not drawn) | inconclusive [inhibitor, single point] | 
Cn1cccc1CC(=O)NNC(=S)Nc1ccc(Cl)cc1Cl | inconclusive [inhibitor, full curve] | 
COc1ccc2nc(SCc3nc(N)nc(Nc4ccccc4)n3)[nH]c2c1 | inconclusive [inhibitor, partial curve, poor fit] | 
Cc1ccc(CNC(=O)CN(c2ccc(Cl)cc2)S(C)(=O)=O)cc1 |  | inactive: -10.3%
COc1ccccc1CN1CC(C(=O)N2CCCCO2)CCC1=O (stereo not drawn) |  | inactive: 0.535%
Cc1nn(C(=O)c2ccco2)c(C)c1Br | inconclusive [inhibitor, single point] | 
O=C(Cc1ccccc1)NCc1ccc(F)cc1 | inconclusive [inhibitor, single point] | 
O=C(CCCN1C(=O)/C(=C\c2ccco2)SC1=S)Nc1ccc(O)cc1C(=O)O | inconclusive [inhibitor, partial curve, poor fit] | 
CC(C)OC(=O)c1ccc(S(N)(=O)=O)o1 |  | inactive: -15.5%
CCc1nn2c(=O)c(S(=O)(=O)Nc3ccc(Cl)cc3)c(C)nc2s1 | inconclusive [inhibitor, full curve, poor fit] | 
